This is one part of the list.
Assays:
Assay in all cases: glycan array binding signal (z-score within array); higher = stronger binding
Details in all cases: glycan notation: IUPAC condensed, linker removed
[1] = target: Neu5Ac(a2-3)Gal(b1-4)[Fuc(a1-3)]GlcNAc(b1-3)GalNAc
Procedure, shortened: (§1)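 The Consortium for Functional Glycomics database supplied 3228 glycan arrays, of which those lacking an available protein sequence were dropped. The binding signal, a within-array Z-score, was averaged across arrays of the same protein sequence and across linkers. Negative scores can be read as non-binding.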

[2] = target: Neu5Ac(a2-3)Gal(b1-4)[Fuc(a1-3)]GlcNAc(b1-6)[Gal(b1-3)]GalNAc
Procedure, shortened: as §1

[3] = target: Neu5Ac(a2-3)Gal(b1-4)[Fuc(a1-3)]GlcNAc(b1-6)[Neu5Ac(a2-3)Gal(b1-3)]GalNAc
Procedure, shortened: as §1

[4] = target: Neu5Ac(a2-3)Gal(b1-4)[Fuc(a1-3)]GlcNAc6S
Procedure, shortened: as §1

[5] = target: Neu5Ac(a2-3)Gal6S(b1-4)GlcNAc
Procedure, shortened: as §1

[6] = target: Neu5Ac(a2-3)Gal6S(b1-4)[Fuc(a1-3)]GlcNAc
Procedure, shortened: as §1

Neu5Ac(a2-3)GalNAc = target: Neu5Ac(a2-3)GalNAc
Procedure, shortened: as §1

[7] = target: Neu5Ac(a2-3)GalNAc(b1-4)GlcNAc
Procedure, shortened: as §1

[8] = target: Neu5Ac(a2-3)[GalNAc(b1-4)]Gal(b1-4)Glc
Procedure, shortened: as §1

[9] = target: Neu5Ac(a2-3)[GalNAc(b1-4)]Gal(b1-4)GlcNAc
Procedure, shortened: as §1

[10] = target: Neu5Ac(a2-3)[GalNAc(b1-4)]Gal(b1-4)GlcNAc(b1-3)GalNAc
Procedure, shortened: as §1

[11] = target: Neu5Ac(a2-3)[Neu5Ac(a2-6)]GalNAc
Procedure, shortened: as §1

Neu5Ac(a2-6)Gal = target: Neu5Ac(a2-6)Gal
Procedure, shortened: as §1

[12] = target: Neu5Ac(a2-6)Gal(b1-3)GlcNAc(b1-3)[Gal(b1-4)GlcNAc(b1-6)]Gal(b1-4)Glc
Procedure, shortened: as §1

Neu5Ac(a2-6)Gal(b1-4)Glc = target: Neu5Ac(a2-6)Gal(b1-4)Glc
Procedure, shortened: as §1

[13] = target: Neu5Ac(a2-6)Gal(b1-4)GlcNAc
Procedure, shortened: as §1

[14] = target: Neu5Ac(a2-6)Gal(b1-4)GlcNAc(b1-2)Man(a1-3)Man(b1-4)GlcNAc(b1-4)GlcNAc
Procedure, shortened: as §1

[15] = target: Neu5Ac(a2-6)Gal(b1-4)GlcNAc(b1-2)Man(a1-3)[Gal(b1-4)GlcNAc(b1-2)Man(a1-6)]Man(b1-4)GlcNAc(b1-4)GlcNAc
Procedure, shortened: as §1

[16] = target: Neu5Ac(a2-6)Gal(b1-4)GlcNAc(b1-2)Man(a1-3)[GlcNAc(b1-2)Man(a1-6)]Man(b1-4)GlcNAc(b1-4)GlcNAc
Procedure, shortened: as §1

[17] = target: Neu5Ac(a2-6)Gal(b1-4)GlcNAc(b1-2)Man(a1-3)[GlcNAc(b1-2)Man(b1-4)GlcNAc(b1-2)Man(a1-6)]Man(b1-4)GlcNAc(b1-4)GlcNAc
Procedure, shortened: as §1

[18] = target: Neu5Ac(a2-6)Gal(b1-4)GlcNAc(b1-2)Man(a1-3)[Man(a1-6)]Man(b1-4)GlcNAc(b1-4)GlcNAc
Procedure, shortened: as §1

[19] = target: Neu5Ac(a2-6)Gal(b1-4)GlcNAc(b1-2)Man(a1-3)[Neu5Ac(a2-6)Gal(b1-4)GlcNAc(b1-2)Man(a1-6)]Man(b1-4)GlcNAc(b1-4)GlcNAc
Procedure, shortened: as §1

[20] = target: Neu5Ac(a2-6)Gal(b1-4)GlcNAc(b1-2)Man(a1-6)Man(b1-4)GlcNAc(b1-4)GlcNAc
Procedure, shortened: as §1

[21] = target: Neu5Ac(a2-6)Gal(b1-4)GlcNAc(b1-2)Man(a1-6)[Gal(b1-4)GlcNAc(b1-2)Man(a1-3)]Man(b1-4)GlcNAc(b1-4)GlcNAc
Procedure, shortened: as §1

[22] = target: Neu5Ac(a2-6)Gal(b1-4)GlcNAc(b1-2)Man(a1-6)[GlcNAc(b1-2)Man(a1-3)]Man(b1-4)GlcNAc(b1-4)GlcNAc
Procedure, shortened: as §1

[23] = target: Neu5Ac(a2-6)Gal(b1-4)GlcNAc(b1-2)Man(a1-6)[Man(a1-3)]Man(b1-4)GlcNAc(b1-4)GlcNAc
Procedure, shortened: as §1

[24] = target: Neu5Ac(a2-6)Gal(b1-4)GlcNAc(b1-3)Gal(b1-3)GlcNAc
Procedure, shortened: as §1

[25] = target: Neu5Ac(a2-6)Gal(b1-4)GlcNAc(b1-3)Gal(b1-4)GlcNAc
Procedure, shortened: as §1

[26] = target: Neu5Ac(a2-6)Gal(b1-4)GlcNAc(b1-3)Gal(b1-4)GlcNAc(b1-3)Gal(b1-4)GlcNAc
Procedure, shortened: as §1

[27] = target: Neu5Ac(a2-6)Gal(b1-4)GlcNAc(b1-3)Gal(b1-4)[Fuc(a1-3)]GlcNAc(b1-3)Gal(b1-4)[Fuc(a1-3)]GlcNAc
Procedure, shortened: as §1

[28] = target: Neu5Ac(a2-6)Gal(b1-4)GlcNAc(b1-3)GalNAc
Procedure, shortened: as §1

[29] = target: Neu5Ac(a2-6)Gal(b1-4)GlcNAc6S
Procedure, shortened: as §1

Neu5Ac(a2-6)GalNAc = target: Neu5Ac(a2-6)GalNAc
Procedure, shortened: as §1

[30] = target: Neu5Ac(a2-6)GalNAc(b1-4)GlcNAc
Procedure, shortened: as §1

[31] = target: Neu5Ac(a2-6)GlcNAc(b1-4)GlcNAc
Procedure, shortened: as §1

[32] = target: Neu5Ac(a2-6)GlcNAc(b1-4)GlcNAc(b1-4)GlcNAc
Procedure, shortened: as §1

Neu5Ac(a2-8)Neu5Ac = target: Neu5Ac(a2-8)Neu5Ac
Procedure, shortened: as §1

[33] = target: Neu5Ac(a2-8)Neu5Ac(a2-3)Gal(b1-4)Glc
Procedure, shortened: as §1

[34] = target: Neu5Ac(a2-8)Neu5Ac(a2-3)[Gal(b1-3)GalNAc(b1-4)]Gal(b1-4)Glc
Procedure, shortened: as §1

[35] = target: Neu5Ac(a2-8)Neu5Ac(a2-3)[GalNAc(b1-4)]Gal(b1-4)Glc
Procedure, shortened: as §1

[36] = target: Neu5Ac(a2-8)Neu5Ac(a2-8)Neu5Ac
Procedure, shortened: as §1

[37] = target: Neu5Ac(a2-8)Neu5Ac(a2-8)Neu5Ac(a2-3)Gal(b1-4)Glc
Procedure, shortened: as §1

[38] = target: Neu5Ac(a2-8)Neu5Ac(a2-8)Neu5Ac(a2-3)[GalNAc(b1-4)]Gal(b1-4)Glc
Procedure, shortened: as §1

[39] = target: Neu5Ac(a2-8)Neu5Ac(a2-8)Neu5Ac(a2-8)Neu5Ac(a2-3)[GalNAc(b1-4)]Gal(b1-4)Glc
Procedure, shortened: as §1

[40] = target: Neu5Ac(b2-6)Gal(b1-4)GlcNAc
Procedure, shortened: as §1

Neu5Ac(b2-6)GalNAc = target: Neu5Ac(b2-6)GalNAc
Procedure, shortened: as §1

[41] = target: Neu5Ac9Ac(a2-3)Gal(b1-3)GlcNAc
Procedure, shortened: as §1

[42] = target: Neu5Ac9Ac(a2-3)Gal(b1-4)GlcNAc
Procedure, shortened: as §1

[43] = target: Neu5Ac9Ac(a2-6)Gal(b1-4)GlcNAc
Procedure, shortened: as §1

[44] = target: Neu5Gc(a2-3)Gal(b1-3)GlcNAc
Procedure, shortened: as §1

[45] = target: Neu5Gc(a2-3)Gal(b1-3)[Fuc(a1-4)]GlcNAc
Procedure, shortened: as §1

Neu5Gc(a2-3)Gal(b1-4)Glc = target: Neu5Gc(a2-3)Gal(b1-4)Glc
Procedure, shortened: as §1

[46] = target: Neu5Gc(a2-3)Gal(b1-4)GlcNAc
Procedure, shortened: as §1

[47] = target: Neu5Gc(a2-3)Gal(b1-4)[Fuc(a1-3)]GlcNAc
Procedure, shortened: as §1

[48] = target: Neu5Gc(a2-6)Gal(b1-4)GlcNAc
Procedure, shortened: as §1

Neu5Gc(a2-6)GalNAc = target: Neu5Gc(a2-6)GalNAc
Procedure, shortened: as §1

[49] = target: Neu5Gc(b2-6)Gal(b1-4)GlcNAc
Procedure, shortened: as §1

B1: Gal 2 (Canis lupus) (protein)
chain: MSGKFEVMNMDMKLGGTLKIKGKIAGDADGFVINLGQGSDKLNLHFNPRFHESVIVCNSRNWGQEQRDKHMCFSPGSEVKFTVTFENDGFKVKLPDGHQLTFPNRLGHSHLSYLGVQGGLKVSSFKIE
- glycan array binding signal (z-score) [1]: 1.21
- glycan array binding signal (z-score) [2]: 0.092
- glycan array binding signal (z-score) [3]: 0.142
- glycan array binding signal (z-score) [4]: 0.098
- glycan array binding signal (z-score) [5]: 0.103
- glycan array binding signal (z-score) [6]: -0.368
- glycan array binding signal (z-score) (Neu5Ac(a2-3)GalNAc): 0.233
- glycan array binding signal (z-score) [7]: 0.284
- glycan array binding signal (z-score) [8]: -0.298
- glycan array binding signal (z-score) [9]: -0.199
- glycan array binding signal (z-score) [10]: 0.103
- glycan array binding signal (z-score) [11]: -0.387
- glycan array binding signal (z-score) (Neu5Ac(a2-6)Gal): 0.292
- glycan array binding signal (z-score) [12]: -0.515
- glycan array binding signal (z-score) (Neu5Ac(a2-6)Gal(b1-4)Glc): 0.01
- glycan array binding signal (z-score) [13]: -0.063
- glycan array binding signal (z-score) [14]: -0.182
- glycan array binding signal (z-score) [15]: -0.201
- glycan array binding signal (z-score) [16]: -0.18
- glycan array binding signal (z-score) [17]: -0.008
- glycan array binding signal (z-score) [18]: -0.076
- glycan array binding signal (z-score) [19]: 0.083
- glycan array binding signal (z-score) [20]: -0.155
- glycan array binding signal (z-score) [21]: -0.092
- glycan array binding signal (z-score) [22]: -0.361
- glycan array binding signal (z-score) [23]: -0.144
- glycan array binding signal (z-score) [24]: 0.03
- glycan array binding signal (z-score) [25]: 0.189
- glycan array binding signal (z-score) [26]: -0.293
- glycan array binding signal (z-score) [27]: 0.104
- glycan array binding signal (z-score) [28]: 0.102
- glycan array binding signal (z-score) [29]: -0.151
- glycan array binding signal (z-score) (Neu5Ac(a2-6)GalNAc): -0.513
- glycan array binding signal (z-score) [30]: -0.227
- glycan array binding signal (z-score) [31]: -0.326
- glycan array binding signal (z-score) [32]: -0.115
- glycan array binding signal (z-score) (Neu5Ac(a2-8)Neu5Ac): 0.138
- glycan array binding signal (z-score) [33]: -0.355
- glycan array binding signal (z-score) [34]: -0.063
- glycan array binding signal (z-score) [35]: 0.24
- glycan array binding signal (z-score) [36]: -0.068
- glycan array binding signal (z-score) [37]: 0.04
- glycan array binding signal (z-score) [38]: -0.06
- glycan array binding signal (z-score) [39]: -0.153
- glycan array binding signal (z-score) [40]: -0.11
- glycan array binding signal (z-score) (Neu5Ac(b2-6)GalNAc): -0.068
- glycan array binding signal (z-score) [41]: -0.194
- glycan array binding signal (z-score) [42]: -0.277
- glycan array binding signal (z-score) [43]: -0.357
- glycan array binding signal (z-score) [44]: -0.304
- glycan array binding signal (z-score) [45]: -0.339
- glycan array binding signal (z-score) (Neu5Gc(a2-3)Gal(b1-4)Glc): 0.018
- glycan array binding signal (z-score) [46]: -0.159
- glycan array binding signal (z-score) [47]: -0.153
- glycan array binding signal (z-score) [48]: -0.407
- glycan array binding signal (z-score) (Neu5Gc(a2-6)GalNAc): -0.25
- glycan array binding signal (z-score) [49]: -0.415

From the supplement of paper PMC8728848
